The other results are listed elsewhere or left out. The energies were worked out here from pooled read counts, against the library average; single values are noisy.
What follows are sequences tested against T1, Pho4 (S. cerevisiae) (UniProt P07270) (assay: relative binding free energy (BET-seq); higher = weaker binding). Details: reference: library average.
T1 sequence: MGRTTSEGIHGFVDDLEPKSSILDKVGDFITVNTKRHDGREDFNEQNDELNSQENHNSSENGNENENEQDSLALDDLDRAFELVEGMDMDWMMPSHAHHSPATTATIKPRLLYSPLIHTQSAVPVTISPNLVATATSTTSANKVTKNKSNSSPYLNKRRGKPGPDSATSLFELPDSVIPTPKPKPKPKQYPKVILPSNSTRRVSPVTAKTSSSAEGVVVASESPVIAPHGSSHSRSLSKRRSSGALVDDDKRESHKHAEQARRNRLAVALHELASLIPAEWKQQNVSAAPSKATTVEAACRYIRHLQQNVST
In the case of ATTAACACGTGGCTGG, the “relative binding free energy” value is reported as -0.13 kcal/mol. For CGATTCACGTGGTATT, the “relative binding free energy” value was 0.17 kcal/mol. In the case of GCGTACACGTGTTTTT, the “relative binding free energy” value is reported as 0.14 kcal/mol. For GTGATCACGTGTGCTG, the “relative binding free energy” value was 0.01 kcal/mol. GTTGGCACGTGTATTA was tested, and the “relative binding free energy” value was -0.03 kcal/mol. For AGTGACACGTGGAAGG, the “relative binding free energy” value was 0 kcal/mol. With TTGGACACGTGATGCG the “relative binding free energy” value was 0.12 kcal/mol. With GAGCGCACGTGAGGTG the “relative binding free energy” value was 0.19 kcal/mol. For TAAGCCACGTGGGGTA, the “relative binding free energy” value was -0.4 kcal/mol. In the case of TTAAGCACGTGAGGAG, the “relative binding free energy” value is reported as 0.09 kcal/mol. With TATCTCACGTGGCGTA the “relative binding free energy” value was 0.29 kcal/mol. In the case of ATGGCCACGTGAGTGG, the “relative binding free energy” value is reported as 0.13 kcal/mol. In the case of AGTGTCACGTGGAGTG, the “relative binding free energy” value is reported as 0.09 kcal/mol. In the case of TGTTACACGTGTTTTA, the “relative binding free energy” value is reported as 0.15 kcal/mol. With CGTAGCACGTGCTTGG the “relative binding free energy” value was 0 kcal/mol. In the case of GTGGGCACGTGTAGTG, the “relative binding free energy” value is reported as -0.03 kcal/mol. With GGGGGCACGTGGCCGA the “relative binding free energy” value was -0.34 kcal/mol. With TAAGCCACGTGGTTGG the “relative binding free energy” value was -0.12 kcal/mol. GGTTACACGTGTTGGT was tested, and the “relative binding free energy” value was 0.29 kcal/mol. With AGGTACACGTGGTGGA the “relative binding free energy” value was 0 kcal/mol. For CTTAACACGTGTTTGT, the “relative binding free energy” value was 0.02 kcal/mol. With GGGAGCACGTGTGTGC the “relative binding free energy” value was -0.01 kcal/mol. In the case of TGGGGCACGTGACAAG, the “relative binding free energy” value is reported as -0.14 kcal/mol. In the case of AATGTCACGTGGGGGT, the “relative binding free energy” value is reported as -0.1 kcal/mol. TCTTTCACGTGTTTTG was tested, and the “relative binding free energy” value was 0.21 kcal/mol. AAGGTCACGTGTTGTC was tested, and the “relative binding free energy” value was 0.12 kcal/mol. In the case of TTGGTCACGTGACTGT, the “relative binding free energy” value is reported as 0.22 kcal/mol. For CAGTTCACGTGGGTGA, the “relative binding free energy” value was 0.1 kcal/mol. With CGTAGCACGTGTGGGT the “relative binding free energy” value was 0.01 kcal/mol. In the case of TTGGGCACGTGAAGTG, the “relative binding free energy” value is reported as 0.23 kcal/mol. TTGTTCACGTGTTCAT was tested, and the “relative binding free energy” value was 0.31 kcal/mol. TAGTTCACGTGATTAG was tested, and the “relative binding free energy” value was 0.27 kcal/mol. In the case of TATTTCACGTGTCATT, the “relative binding free energy” value is reported as 0.15 kcal/mol. In the case of TTTCGCACGTGGTGAG, the “relative binding free energy” value is reported as 0.1 kcal/mol. GTGTCCACGTGGGCGG was tested, and the “relative binding free energy” value was -0.04 kcal/mol. With TGGAACACGTGGTTTG the “relative binding free energy” value was 0.05 kcal/mol. TAGATCACGTGGTCGG was tested, and the “relative binding free energy” value was 0.14 kcal/mol. CATAGCACGTGGTGGA was tested, and the “relative binding free energy” value was -0.14 kcal/mol. With TTGTACACGTGTTGGT the “relative binding free energy” value was 0 kcal/mol. With AATATCACGTGTTGGC the “relative binding free energy” value was 0.09 kcal/mol. With TTAAGCACGTGGGGTC the “relative binding free energy” value was -0.22 kcal/mol. In the case of GGATGCACGTGGCCGT, the “relative binding free energy” value is reported as -0.04 kcal/mol. With TGTTGCACGTGGGTGA the “relative binding free energy” value was -0.05 kcal/mol. With TGGATCACGTGAAAAT the “relative binding free energy” value was 0.49 kcal/mol. With ATGCGCACGTGAAGGG the “relative binding free energy” value was 0.13 kcal/mol. With TAGGACACGTGATGTA the “relative binding free energy” value was -0.04 kcal/mol. GTTAGCACGTGTAAGT was tested, and the “relative binding free energy” value was 0.04 kcal/mol. For GAGGTCACGTGAGGTC, the “relative binding free energy” value was 0.43 kcal/mol. For CTGTACACGTGGGTGT, the “relative binding free energy” value was -0.13 kcal/mol. In the case of GGTAACACGTGATTGT, the “relative binding free energy” value is reported as 0.21 kcal/mol. TATGTCACGTGGAGTA was tested, and the “relative binding free energy” value was 0.05 kcal/mol. CTGGGCACGTGGTTGA was tested, and the “relative binding free energy” value was -0.23 kcal/mol. CTGAGCACGTGTGCGT was tested, and the “relative binding free energy” value was 0.04 kcal/mol. CTTTGCACGTGGTGGC was tested, and the “relative binding free energy” value was -0.01 kcal/mol. In the case of AGATGCACGTGTAGGG, the “relative binding free energy” value is reported as 0.01 kcal/mol. In the case of ATTGACACGTGTGTAT, the “relative binding free energy” value is reported as -0.09 kcal/mol. With CATAGCACGTGGGCGG the “relative binding free energy” value was -0.22 kcal/mol. With GTTATCACGTGTCGCT the “relative binding free energy” value was 0.3 kcal/mol. With TGTTGCACGTGCAAAT the “relative binding free energy” value was -0.01 kcal/mol. TTCTGCACGTGTGGAA was tested, and the “relative binding free energy” value was 0.18 kcal/mol. With TAGGGCACGTGGGTGC the “relative binding free energy” value was -0.27 kcal/mol. For GTTTGCACGTGGATTG, the “relative binding free energy” value was 0.11 kcal/mol. For TAGGTCACGTGAGGTG, the “relative binding free energy” value was 0.25 kcal/mol. For TTAGTCACGTGTATAT, the “relative binding free energy” value was 0.12 kcal/mol. In the case of GGGAGCACGTGGCGTT, the “relative binding free energy” value is reported as -0.28 kcal/mol. AGTAGCACGTGGGATT was tested, and the “relative binding free energy” value was -0.16 kcal/mol. In the case of TTCGGCACGTGTTTAA, the “relative binding free energy” value is reported as -0.02 kcal/mol. With ATTGTCACGTGAGATT the “relative binding free energy” value was 0.26 kcal/mol. CGTTTCACGTGCGGAG was tested, and the “relative binding free energy” value was 0.2 kcal/mol. With GTCTCCACGTGGGGTT the “relative binding free energy” value was -0.04 kcal/mol. With TGTCTCACGTGTGTGG the “relative binding free energy” value was 0.19 kcal/mol. GGGCGCACGTGGTTGC was tested, and the “relative binding free energy” value was -0.08 kcal/mol. In the case of AAGAGCACGTGGAATG, the “relative binding free energy” value is reported as 0.12 kcal/mol. For TCTGTCACGTGTTGAA, the “relative binding free energy” value was 0.15 kcal/mol. For GTGAACACGTGTATAT, the “relative binding free energy” value was 0.09 kcal/mol. In the case of TGCTGCACGTGGTTTG, the “relative binding free energy” value is reported as 0.01 kcal/mol. In the case of TTCAGCACGTGTGATT, the “relative binding free energy” value is reported as 0.04 kcal/mol. GATTGCACGTGCTGGG was tested, and the “relative binding free energy” value was 0.01 kcal/mol. With ATAGCCACGTGAGGTG the “relative binding free energy” value was 0.18 kcal/mol. With ACGGGCACGTGACTGG the “relative binding free energy” value was 0.13 kcal/mol. In the case of TTTATCACGTGTGAAT, the “relative binding free energy” value is reported as 0.14 kcal/mol. For TTGTACACGTGGAGAA, the “relative binding free energy” value was 0.08 kcal/mol. With AGTTGCACGTGGGCGC the “relative binding free energy” value was -0.21 kcal/mol. In the case of TTCTTCACGTGTCTGT, the “relative binding free energy” value is reported as 0.27 kcal/mol. With GTCTTCACGTGCAGTT the “relative binding free energy” value was 0.41 kcal/mol. With TAATGCACGTGCGGCG the “relative binding free energy” value was -0.07 kcal/mol. With TTTTACACGTGGGGTC the “relative binding free energy” value was 0 kcal/mol. GTTGCCACGTGTTAGT was tested, and the “relative binding free energy” value was 0.02 kcal/mol. TTCTACACGTGGCGGG was tested, and the “relative binding free energy” value was 0.15 kcal/mol. With GGTAACACGTGAGGGA the “relative binding free energy” value was 0.35 kcal/mol. In the case of GGTTTCACGTGCAAGT, the “relative binding free energy” value is reported as 0.35 kcal/mol. In the case of GGCATCACGTGTATGT, the “relative binding free energy” value is reported as 0.22 kcal/mol. For AGGGCCACGTGAGGGC, the “relative binding free energy” value was 0.16 kcal/mol. With GTAAGCACGTGAGAGT the “relative binding free energy” value was 0.05 kcal/mol. For TGGAACACGTGGCGGC, the “relative binding free energy” value was -0.02 kcal/mol. TGTTGCACGTGGCGAG was tested, and the “relative binding free energy” value was -0.07 kcal/mol. TCCAACACGTGTGGGT was tested, and the “relative binding free energy” value was 0.23 kcal/mol. AGGGGCACGTGTTTGA was tested, and the “relative binding free energy” value was -0.16 kcal/mol. TCGTGCACGTGAATGT was tested, and the “relative binding free energy” value was 0.27 kcal/mol. With CGCGGCACGTGTGGTG the “relative binding free energy” value was -0.11 kcal/mol. In the case of TCGTGCACGTGTGTTT, the “relative binding free energy” value is reported as -0.07 kcal/mol. GGTTTCACGTGATCGT was tested, and the “relative binding free energy” value was 0.25 kcal/mol. For ATGTTCACGTGGGAAG, the “relative binding free energy” value was 0.17 kcal/mol. With AGTGGCACGTGACATG the “relative binding free energy” value was 0.03 kcal/mol. In the case of TTTTTCACGTGGCGTA, the “relative binding free energy” value is reported as 0.16 kcal/mol. With TGAGGCACGTGTTAAC the “relative binding free energy” value was 0.06 kcal/mol. For AGCATCACGTGTGAGG, the “relative binding free energy” value was 0.15 kcal/mol. With TGTACCACGTGGTAGT the “relative binding free energy” value was -0.09 kcal/mol. For GGAAGCACGTGGGATA, the “relative binding free energy” value was -0.15 kcal/mol. GTTAACACGTGATAAT was tested, and the “relative binding free energy” value was 0.25 kcal/mol. With TGGTACACGTGTCGGG the “relative binding free energy” value was 0.18 kcal/mol. TAGGGCACGTGCTGAT was tested, and the “relative binding free energy” value was -0.13 kcal/mol. For GAGGGCACGTGGTCTA, the “relative binding free energy” value was -0.23 kcal/mol. In the case of CATTGCACGTGGTATG, the “relative binding free energy” value is reported as -0.08 kcal/mol. With TAGGGCACGTGTTATT the “relative binding free energy” value was -0.11 kcal/mol. With TTGTTCACGTGTTGCG the “relative binding free energy” value was 0.21 kcal/mol. With ATGGTCACGTGGTCGA the “relative binding free energy” value was -0.02 kcal/mol. In the case of GGGGTCACGTGGGGAG, the “relative binding free energy” value is reported as 0.1 kcal/mol. In the case of AAATTCACGTGCGTTG, the “relative binding free energy” value is reported as 0.2 kcal/mol. For TGGCTCACGTGTCTAG, the “relative binding free energy” value was 0.36 kcal/mol. GGTTCCACGTGTTTGG was tested, and the “relative binding free energy” value was 0.12 kcal/mol. For GGGGACACGTGCATGG, the “relative binding free energy” value was 0 kcal/mol. In the case of TGAGGCACGTGTTGAG, the “relative binding free energy” value is reported as -0.08 kcal/mol. For CAGGGCACGTGAGGTC, the “relative binding free energy” value was 0.24 kcal/mol. TTGATCACGTGCTTAT was tested, and the “relative binding free energy” value was 0.03 kcal/mol. For ATTTTCACGTGTTCAA, the “relative binding free energy” value was 0.13 kcal/mol. With GTGCACACGTGTAGGC the “relative binding free energy” value was 0.24 kcal/mol. GGGGCCACGTGTCTGG was tested, and the “relative binding free energy” value was -0.02 kcal/mol. TGGGCCACGTGATGGA was tested, and the “relative binding free energy” value was 0.07 kcal/mol. In the case of GTAGTCACGTGTTGAT, the “relative binding free energy” value is reported as 0.07 kcal/mol. GTTTACACGTGCGGGC was tested, and the “relative binding free energy” value was 0.12 kcal/mol. With TTCATCACGTGGTGCT the “relative binding free energy” value was -0.04 kcal/mol. With TTAGTCACGTGAATTA the “relative binding free energy” value was 0.24 kcal/mol. TGTGGCACGTGATATC was tested, and the “relative binding free energy” value was -0.02 kcal/mol. CTTGTCACGTGGTTGA was tested, and the “relative binding free energy” value was -0.02 kcal/mol. In the case of AGGTACACGTGAGATT, the “relative binding free energy” value is reported as 0.28 kcal/mol. For TGGACCACGTGCGGGT, the “relative binding free energy” value was -0.09 kcal/mol. In the case of AGGGACACGTGGCTGT, the “relative binding free energy” value is reported as -0.17 kcal/mol. With TTTACCACGTGGATGG the “relative binding free energy” value was -0.12 kcal/mol. For GGGTTCACGTGTGTTC, the “relative binding free energy” value was 0.47 kcal/mol. AAGGTCACGTGCGCGT was tested, and the “relative binding free energy” value was -0.03 kcal/mol. For TTGTACACGTGGTAAA, the “relative binding free energy” value was 0.05 kcal/mol. With CGGAGCACGTGTGTTA the “relative binding free energy” value was -0.14 kcal/mol. With CTTTTCACGTGGAAGT the “relative binding free energy” value was 0.25 kcal/mol. GTCTTCACGTGGTTGG was tested, and the “relative binding free energy” value was 0.19 kcal/mol. TGTCTCACGTGTCGTG was tested, and the “relative binding free energy” value was 0.28 kcal/mol.

From the BET-seq Pho4 binding data (Le et al. 2018)
